# Laboratory results from the supplement of paper PMC8728848.
# Some of the results follow.
# Columns and labels:
# Test in all cases: glycan array binding signal (z-score within array); higher = stronger binding
# Details in all cases: glycan notation: IUPAC condensed, linker removed
# [1] = biological target: Fuc(a1-2)[GalNAc(a1-3)]Gal(b1-4)GlcNAc
# In short: (§1)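 From the Consortium for Functional Glycomics database, 3228 arrays were curated, keeping only those whose protein sequence was available. Binding is given as a within-array Z-score averaged across arrays sharing a protein sequence and across linkers. Negative Z-scores can be read as non-binding.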
# [2] = biological target: Fuc(a1-2)[GalNAc(a1-3)]Gal(b1-4)GlcNAc(b1-2)Man(a1-3)[GalNAc(a1-3)[Fuc(a1-2)]Gal(b1-4)GlcNAc(b1-2)Man(a1-6)]Man(b1-4)GlcNAc(b1-4)GlcNAc
# In short: as §1
# [3] = biological target: Fuc(a1-2)[GalNAc(a1-3)]Gal(b1-4)GlcNAc(b1-3)Gal(b1-4)GlcNAc
# In short: as §1
# [4] = biological target: Fuc(a1-2)[GalNAc(a1-3)]Gal(b1-4)GlcNAc(b1-3)Gal(b1-4)GlcNAc(b1-3)Gal(b1-4)GlcNAc
# In short: as §1
# [5] = biological target: Fuc(a1-2)[GalNAc(a1-3)]Gal(b1-4)[Fuc(a1-3)]GlcNAc
# In short: as §1
# [6] = biological target: Fuc(a1-2)[GalNAc(a1-4)]Gal(b1-4)GlcNAc
# In short: as §1
# [7] = biological target: Fuc(a1-2)[GalNAc(b1-3)]Gal
# In short: as §1
# [8] = biological target: Fuc(a1-3)GlcNAc
# In short: as §1
# [9] = biological target: Fuc(a1-3)[Gal(b1-4)]Glc6S
# In short: as §1
# [10] = biological target: Fuc(a1-3)[Gal(b1-4)]GlcNAc
# In short: as §1
# [11] = biological target: Fuc(a1-3)[Gal(b1-4)]GlcNAc(b1-2)Man(a1-3)[Fuc(a1-3)[Gal(b1-4)]GlcNAc(b1-2)Man(a1-6)]Man(b1-4)GlcNAc(b1-4)GlcNAc
# In short: as §1
# [12] = biological target: Fuc(a1-3)[Gal(b1-4)]GlcNAc(b1-2)Man(a1-6)[Gal(b1-4)GlcNAc(b1-2)Man(a1-3)]Man(b1-4)GlcNAc(b1-4)GlcNAc
# In short: as §1
# [13] = biological target: Fuc(a1-3)[Gal(b1-4)]GlcNAc(b1-3)Gal(b1-3)[Fuc(a1-4)]GlcNAc
# In short: as §1
# [14] = biological target: Fuc(a1-3)[Gal(b1-4)]GlcNAc(b1-4)Gal(b1-4)[Fuc(a1-3)]GlcNAc
# In short: as §1
# [15] = biological target: Fuc(a1-3)[Gal(b1-4)]GlcNAc(b1-4)Gal(b1-4)[Fuc(a1-3)]GlcNAc(b1-4)Gal(b1-4)[Fuc(a1-3)]GlcNAc
# In short: as §1
# [16] = biological target: Fuc(a1-3)[Gal(b1-4)]GlcNAc6S
# In short: as §1
# [17] = biological target: Fuc(a1-3)[Gal3S(b1-4)]Glc6S
# In short: as §1
# [18] = biological target: Fuc(a1-3)[Gal3S(b1-4)]GlcNAc
# In short: as §1
# [19] = biological target: Fuc(a1-3)[Gal3S(b1-4)]GlcNAc6S
# In short: as §1
# [20] = biological target: Fuc(a1-3)[GalNAc(b1-4)]GlcNAc
# In short: as §1
# [21] = biological target: Fuc(a1-3)[Neu5Ac(a2-3)]Gal(b1-4)GlcNAc(b1-3)GalNAc
# In short: as §1
# [22] = biological target: Fuc(a1-4)GlcNAc
# In short: as §1
# [23] = biological target: Fuc(b1-3)GlcNAc
# In short: as §1
# [24] = biological target: Gal(a1-2)Gal
# In short: as §1
# [25] = biological target: Gal(a1-3)Gal
# In short: as §1
# [26] = biological target: Gal(a1-3)Gal(b1-3)GlcNAc
# In short: as §1
# [27] = biological target: Gal(a1-3)Gal(b1-4)Glc
# In short: as §1
# [28] = biological target: Gal(a1-3)Gal(b1-4)GlcNAc
# In short: as §1
# [29] = biological target: Gal(a1-3)Gal(b1-4)[Fuc(a1-3)]GlcNAc
# In short: as §1
# [30] = biological target: Gal(a1-3)Gal(b1-4)[Fuc(a1-3)]GlcNAc(b1-2)Man(a1-3)[Gal(a1-3)Gal(b1-4)[Fuc(a1-3)]GlcNAc(b1-2)Man(a1-6)]Man(b1-4)GlcNAc(b1-4)GlcNAc
# In short: as §1
# [31] = biological target: Gal(a1-3)GalNAc
# In short: as §1
# [32] = biological target: Gal(a1-3)[Gal(a1-4)]Gal(b1-4)GlcNAc
# In short: as §1
# [33] = biological target: Gal(a1-4)Gal(b1-4)Glc
# In short: as §1
# [34] = biological target: Gal(a1-4)Gal(b1-4)GlcNAc
# In short: as §1
# [35] = biological target: Gal(a1-4)Gal(b1-4)GlcNAc(b1-3)Gal(b1-4)Glc
# In short: as §1
# [36] = biological target: Gal(a1-4)GlcNAc
# In short: as §1
# [37] = biological target: Gal(a1-6)Glc
# In short: as §1
# [38] = biological target: Gal(b1-2)Gal
# In short: as §1
binder,measurement,setting,value
"LcH (Lens culinaris), P02870 (protein) TETTSFSITKFSPDQQNLIFQGDGYTGKEGLTLTKVSKETGGRALYSTPIHIWDRDTVNVANFVTNGSQVFRESPNGYNVADGFTFFIAPVDTKPQTGGGYLGVFYNGKEYDKTSQTVAVEFDTFYNAAWDPSNKERHIGIDVNSIKSVNTKSWNLQNGVTSYTLNEVVPLKDVVPEWVRIGFSATTGAEFAAQEVHSWSFNSQLGHTSKS",glycan array binding signal (z-score),[1],-0.134
same,glycan array binding signal (z-score),[2],-0.102
same,glycan array binding signal (z-score),[3],-0.119
same,glycan array binding signal (z-score),[4],-0.108
same,glycan array binding signal (z-score),[5],-0.093
same,glycan array binding signal (z-score),[6],-0.14
same,glycan array binding signal (z-score),[7],-0.1
same,glycan array binding signal (z-score),[8],-0.116
same,glycan array binding signal (z-score),[9],-0.116
same,glycan array binding signal (z-score),[10],-0.106
same,glycan array binding signal (z-score),[11],-0.099
same,glycan array binding signal (z-score),[12],-0.083
same,glycan array binding signal (z-score),[13],-0.125
same,glycan array binding signal (z-score),[14],-0.084
same,glycan array binding signal (z-score),[15],-0.134
same,glycan array binding signal (z-score),[16],-0.088
same,glycan array binding signal (z-score),[17],-0.119
same,glycan array binding signal (z-score),[18],-0.088
same,glycan array binding signal (z-score),[19],-0.11
same,glycan array binding signal (z-score),[20],-0.128
same,glycan array binding signal (z-score),[21],-0.132
same,glycan array binding signal (z-score),[22],-0.13
same,glycan array binding signal (z-score),[23],-0.135
same,glycan array binding signal (z-score),[24],-0.122
same,glycan array binding signal (z-score),[25],-0.097
same,glycan array binding signal (z-score),[26],-0.11
same,glycan array binding signal (z-score),[27],-0.145
same,glycan array binding signal (z-score),[28],-0.13
same,glycan array binding signal (z-score),[29],-0.114
same,glycan array binding signal (z-score),[30],-0.138
same,glycan array binding signal (z-score),[31],-0.104
same,glycan array binding signal (z-score),[32],-0.13
same,glycan array binding signal (z-score),[33],-0.124
same,glycan array binding signal (z-score),[34],-0.127
same,glycan array binding signal (z-score),[35],-0.123
same,glycan array binding signal (z-score),[36],-0.13
same,glycan array binding signal (z-score),[37],-0.137
same,glycan array binding signal (z-score),[38],-0.126
